Like-named read-outs stand apart in the source and are kept apart here.
Tests used:
LDHB subunits = test: Enzymatic assay (lactate to pyruvate, NADH fluorescence), Michaelis-Menten; format: biochemical, human
Description: The dehydrogenase reaction was run in the LDH1 (tetramer of LDHB) physiologically relevant lactate to pyruvate direction following the NADH fluorescence generated during lactate oxidation. The progression of the reaction was monitored as the increase of fluorescence at 340/460 nm.
The Michaelis-Menten constant determination was performed using the GraphPad prism software. Enzymatic reactions were performed in a solution containing phosphate buffer 100 mM at pH 8.3 to enhance lactate to pyruvate oxidation, EDTA 1 mM and DTT 1 mM. Final protein concentration was 7.7 nM for full length LDHB subunit and 13.5 nM for the truncated LDHB subunit (LDHBtr). For NAD^+Km determination, concentrations of lactate were set to 20 mM while co factor concentrations ranged from 1 μM to 5 mM for full length enzyme and from 50 μM to 10 mM for the truncated form. For lactate Km determination, concentrations of NAD^+ were set to 1 mM while substrate concentrations ranged from 1 μM to 40 mM for full length enzyme and from 1 mM to 40 mM for the truncated form.

[1] = MST affinity of LDHB proteins for cofactor; format: binding, human
Description: MST measurements were performed on a Nanotemper Monolith NT.115 instrument (Nanotemper Technologies®, GmbH) using Red-dye-NHS fluorescent labeling. Each LDH (WT or truncated) sample, purified to homogeneity, was labeled with the Monolith RED-NHS 2nd generation labeling dye according to the supplied protocol (Nanotemper Technologies®, GmbH). Measurements were performed in 50 mM Na-Phosphate pH 7.6 and 100 mM NaCl containing 0.05% Tween-20 in premium treated capillaries (Nanotemper Technologies®, GmbH). The final concentrations of either labeled protein in the assay were 100 nM. The ligands (NADH and peptides) were titrated in 1:1 dilutions following manufacturer's recommendations. All binding reactions were incubated 5′ at room temperature after loading into capillaries. Experiments were performed in triplicates using 40% LED power and medium MST power, LaserOn time was 20 sec, Laser Off time 3 sec. Linear octapeptides were evaluated for their thermophoretic pattern.

[2] = Thermal shift assay and TYCHO NT.6 stability; format: physicochemical, human
Description: Thermal shift assays were performed on a StepOnePlus Real-Time PCR System (Thermo Fisher Scientific®) in 96-well white plates (Roche®). Each well contained 20 μl of 5 μM protein and 5×SYPRO Orange in 50 mM sodium phosphate pH 7.6, 100 mM NaCl. Each plate was sealed with an optically clear foil and centrifuged for 1 min at 1000 rpm before performing the assay. The plates were heated from 20-99° C. at approximately 4° C./min^−1. The fluorescence intensity was measured with λex=480 nm and λem=580 nm. The melting temperature (Tm) was obtained by determining the minimum of the first derivative curve of the melt curve.

Substance: LDHBtr: LDHB subunit lacking the first N-terminal 19 amino acid residues, 6His tagged, dimeric
- Vmax Lactate (LDHB subunits; lactate to pyruvate direction): 1.11 µM/min
- Vmax NAD+ (LDHB subunits; lactate to pyruvate direction): 0.29 µM/min
- Km (LDHB subunits; lactate to pyruvate direction, read-out: Km Lactate): 6.52 mM
- Km (LDHB subunits; lactate to pyruvate direction, read-out: Km NAD+): 0.578 mM
- decrease in maximal velocity Vmax vs full-length LDHB (LDHB subunits; substrate and cofactor): 10 fold
- increase in Michaelis-Menten constant Km vs full-length LDHB (LDHB subunits; substrate and cofactor): 5 fold
- Kd [1]: 21 µM
- shift in melting temperature vs tetrameric LDHB ([2]; TYCHO NT.6): 24 °C
- shift in melting temperature vs tetrameric LDHB ([2]; thermal shift assay): 18 °C

Reference: patent US20220289791A1, “LACTATE DEHYDROGENASE INHIBITOR POLYPEPTIDES FOR USE IN THE TREATMENT OF CANCER” (UNIVERSITÉ CATHOLIQUE DE LOUVAIN, priority 2019, published 2022)
